Screen size: about 310,000 compounds; about 14,000 (4.5%) showed an effect of 50% or more. The effect is printed as a negative number. Some of the results follow. Where a SMILES comes first, the peptide text is derived from it. The star is where a group is joined. OBn = c1ccc(CO*)cc1
molecular target: human ether-à-go-go-related gene (hERG) potassium channel (human, UniProt Q12809); test: primary screen, population patch clamp on CHO cells stably expressing hERG
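Also: peak tail current of the secondary pulse compared with the same well before compound.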

Chain of human ether-à-go-go-related gene (hERG) potassium channel (Q12809 whole entry, looked up): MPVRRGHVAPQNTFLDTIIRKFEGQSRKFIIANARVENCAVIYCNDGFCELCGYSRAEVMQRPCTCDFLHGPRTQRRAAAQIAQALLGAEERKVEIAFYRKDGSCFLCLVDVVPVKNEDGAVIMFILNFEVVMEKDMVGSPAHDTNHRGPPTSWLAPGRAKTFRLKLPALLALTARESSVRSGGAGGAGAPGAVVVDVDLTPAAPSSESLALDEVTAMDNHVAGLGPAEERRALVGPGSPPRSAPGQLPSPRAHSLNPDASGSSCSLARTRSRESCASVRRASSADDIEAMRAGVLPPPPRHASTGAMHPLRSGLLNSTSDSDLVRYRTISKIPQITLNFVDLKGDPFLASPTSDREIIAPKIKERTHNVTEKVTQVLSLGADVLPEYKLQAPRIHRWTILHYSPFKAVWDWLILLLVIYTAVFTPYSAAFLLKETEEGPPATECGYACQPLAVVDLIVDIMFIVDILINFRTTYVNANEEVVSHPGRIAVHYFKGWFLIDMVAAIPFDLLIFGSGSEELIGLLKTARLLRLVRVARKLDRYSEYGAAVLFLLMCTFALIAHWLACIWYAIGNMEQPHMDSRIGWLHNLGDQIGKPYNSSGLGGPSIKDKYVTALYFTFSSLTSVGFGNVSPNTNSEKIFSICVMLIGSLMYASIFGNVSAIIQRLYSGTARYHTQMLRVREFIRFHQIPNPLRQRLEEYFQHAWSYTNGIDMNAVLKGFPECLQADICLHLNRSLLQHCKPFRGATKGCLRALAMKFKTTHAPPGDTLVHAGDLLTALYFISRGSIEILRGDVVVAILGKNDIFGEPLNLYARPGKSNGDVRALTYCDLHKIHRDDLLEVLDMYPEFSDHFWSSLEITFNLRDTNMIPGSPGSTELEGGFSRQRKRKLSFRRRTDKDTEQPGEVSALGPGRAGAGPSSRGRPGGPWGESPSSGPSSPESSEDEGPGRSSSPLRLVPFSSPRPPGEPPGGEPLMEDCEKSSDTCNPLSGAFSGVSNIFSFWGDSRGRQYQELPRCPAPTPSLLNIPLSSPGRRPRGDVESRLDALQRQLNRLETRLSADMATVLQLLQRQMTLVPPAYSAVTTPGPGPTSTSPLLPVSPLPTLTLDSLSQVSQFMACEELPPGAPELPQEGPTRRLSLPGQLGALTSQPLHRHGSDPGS

SMILES	hERG current change (%, negative = inhibition) at 10uM [%]
COc1cc(NC(=O)C/C(C)=N/NC(=O)Cc2ccccc2)c(OC)cc1Cl	0.288
CC1(C)Cc2cccc(OCC(=O)N3CCN(S(=O)(=O)c4ccccc4)CC3)c2O1	-31.3
O=C1c2ccccc2C(Nc2ccc(F)c(Cl)c2)N1Cc1ccco1 (stereo not drawn)	-4.68
Cc1noc(NS(=O)(=O)c2ccc(N/C=C\C(=O)c3ccncc3)cc2)c1C	-4.04
COc1ccc(/C=N/NC2=NS(=O)(=O)c3ccccc32)cc1OC(C)=O	15.1
COC(=O)C1=C(c2ccc(OC(F)(F)F)cc2)C[C@@H]2CC[C@H]1N2C(=O)N1CCC(C)CC1	-27.1
COc1ccc2nc(NNC(=O)c3cc(=O)c4ccccc4o3)sc2c1	3.29
CN(C)CCNc1ncnc2c1sc1nc(N3CCCC3)c3c(c12)CC(C)(C)OC3	-20.4
c1ccc2c(N3CCCCC3)nc(N3CCCCC3)nc2c1	-39.1
NC(=O)NCCN1CCN(c2ncc(C(F)(F)F)cc2Cl)CC1	-33.7
CC(C)C(=O)NCCc1nc2ccccc2n1C	1.06
CC(C)N(C(=O)COC(=O)c1ccc([N+](=O)[O-])cc1)c1ccccc1	-0.436
CN1C(=S)SC(N2OC3C(=O)N(c4ccccc4)C(=O)C3C2c2ccccc2)C1(C)C (stereo not drawn)	5.6
COc1ccc(OC)c(/C=N/NC(=O)CCc2ccc(O)c(O)c2)c1	-0.886
CCOC(=O)Cn1nc(NC(=O)c2ccc3c(c2)OCO3)cc1C	11.2
CCOC(=O)C(=N/O)/C(C)=N/NC(=O)C(=O)Nc1cc(Cl)ccc1Cl	2.42
COc1cc(OC)cc(-c2cn[nH]c2N)c1	-25.7
Cc1cccc(NC(=O)CNC(=O)COc2cccnc2[N+](=O)[O-])c1C	14.4
CC1CCN(S(=O)(=O)c2cn(CC(=O)Nc3ccc(OC(F)(F)F)cc3)cn2)CC1	14.2
CN=C(Nc1cc(C)nn1-c1ccccc1)c1ccccc1	0.527
O=C(NCC1CCCO1)c1cc(Br)c(Br)s1 (stereo not drawn)	-6.15
O=C(COC(=O)CCS(=O)(=O)c1ccc(F)cc1)NC1CCCCC1	-8.98

SMILES	hERG current change (%, negative = inhibition) at 10uM [%]
O=C(CSCC(=O)Nc1ccc2ccccc2c1)NCc1ccccc1	6.58
CN1CCN(Cc2c(F)cccc2Cl)CC1	12.5
COCCCNC(=O)C(=O)N/N=C/c1cc2c(cc1Br)OCO2	-33.7
Cc1ccccc1C(=O)N1CCN(c2ccc(NC(=S)NC(=O)c3ccco3)cc2)CC1	-29.5
c1ccc2cc(CC3=NCCN3)ccc2c1	13.9
CN1c2ccccc2C(O)=C(C(=S)Nc2ccccc2)S1(=O)=O	22.7
CCOC(=O)C1Nc2ccc(C(F)(F)F)cc2C2c3ccccc3CC12 (stereo not drawn)	9.28
N#Cc1nc(COc2ccc(Br)cc2)oc1N1CCCC1	-12
COc1ccc(S(=O)(=O)Nc2nc3c(s2)C(=O)CC(C)(C)C3)cc1	-10.3
CCCOc1ccc(-c2nc(C#N)c(N3CCN(CC)CC3)o2)cc1	-12.9
Cc1cccc(-c2nc(CN3CCCC(C(=O)NC4CCCC4)C3)c(C)o2)c1 (stereo not drawn)	-76.3
COCCn1c(SCC(=O)Nc2ccc(Cl)cn2)nc2ccccc21	-32.1
CCC(CC)C(=O)Nc1cccc(C(=O)Nc2nccs2)c1	12.3
CC(=O)NC1=NN(C(C)=O)C(c2ccco2)S1 (stereo not drawn)	17.2
CS(=O)(=O)N1CCCC(C(=O)NCc2ccc(F)cc2)C1 (stereo not drawn)	-12.5
Cc1ccccc1C(=O)Nc1cccc(NC(=O)c2ncn[nH]2)c1	19.5
COc1ccc(NC(=O)CSCC(=O)Nc2ccccc2N2CCCC2)cc1	-7.76
Cc1ccc2nc(NCC(N)=O)nc(-c3ccccc3)c2c1	8.23
Cc1cc(NC(=O)CSc2nc3c(c(=O)n2C)SCC3)no1	15.2
Cc1ccc(C(C)NC(=O)c2ccco2)cc1 (stereo not drawn)	-5.21
COc1cc(OC)cc(-c2nnc(SCc3c(F)cccc3Cl)o2)c1	0.324
CCS(=O)(=O)N1CCC(C(=O)Oc2ccc(C)c(C)c2)CC1	15.8

SMILES	hERG current change (%, negative = inhibition) at 10uM [%]
CC12CCC(=O)N1C(C(=O)OCC(=O)Nc1cccc(Br)c1)CS2 (stereo not drawn)	6.89
O=C1/C(=C/c2ccccc2O)SC(=S)N1Cc1cccnc1	12.9
Cc1onc(NC(=O)CSCC(=O)O)c1Br	10.8
CCOc1ccc(-c2[nH]nc3c2C(c2cccnc2)C(C#N)=C(N)O3)cc1 (stereo not drawn)	-5.53
C=C1CCC[C@]2(C)C[C@H]3OC(=O)C(CNCCN(C)C)[C@H]3CC12 (stereo partly drawn)	0.81
CN(C)N1C(=O)/C(=C/c2ccco2)SC1=Nc1ccccc1	14
CCOc1ccc(-c2onc(C(F)(F)F)c2-c2cscn2)c(O)c1	6.55
CSc1ccc(S(=O)(=O)N(C)Cc2ccccc2)cc1	7.97
COc1ccc(CNC(=O)CSCc2cnn(-c3ccccc3)c2-n2cccc2)cc1	-39.6
CCCCC(=O)Nc1nnn(CCC)n1	9.55
Cc1cc(C(=O)N/N=C/c2ccc([N+](=O)[O-])cc2)c(C)o1	-1.99
CCOC(=O)CCc1n[nH]c(=O)[nH]c1=O	7.83
Cc1ccccc1COc1ccc(/C(O)=C2/C(=O)C(=O)N(CCCn3ccnc3)C2c2ccco2)cc1 (stereo not drawn)	17.2
Cc1cc(C(=O)CSc2nnc(-c3ccccc3F)o2)c(C)n1Cc1cccs1	-9.29
COc1ccc(S(=O)(=O)N2CCOCC2)cc1N=Nc1sc(N)nc1-c1ccccc1	0.0587
CC(=O)N1CC(C)Oc2ccc(S(=O)(=O)NC(CC(=O)O)c3ccccc3)cc21 (stereo not drawn)	21.8
COc1c(C(C)C)cc(NC(C)=O)cc1C(C)C	5.78
CC(=NCCN1CCCCC1)c1c(O)n(Cc2ccccc2)c(=O)[nH]c1=O	-35.1
O=C(Cn1c(=O)c2cccn2c2ccccc21)NCc1cccc(F)c1	7.88
COc1ccc(/C=N\NC(=O)c2ccc(F)cc2)cc1COc1ccccc1C(N)=O	-44.3
COc1ccccc1OC(C)c1nnc(SCC(=O)Nc2c(C)n(C)n(-c3ccccc3)c2=O)n1-c1ccccc1 (stereo not drawn)	1.06
CC(=O)c1ccccc1NC(=O)COC(=O)C1CCCN1S(=O)(=O)c1ccccc1F (stereo not drawn)	-0.476

SMILES	hERG current change (%, negative = inhibition) at 10uM [%]
CCN(CC)S(=O)(=O)c1ccc(N2CCOCC2)c(NC(=O)CC(C)(C)C)c1	0.733
COc1ccc([C@@H]2[C@@H]3C(=O)N(C(C)(C)C)C(=O)[C@@H]3[C@]3(C)C(=O)N(c4cccc(C)c4)C(=O)N23)cc1	-20.4
COc1ccc(NC(=O)/C(=C\c2ccc(OC)c(OC)c2)NC(=O)c2ccco2)cc1	-22
CC1=C(C(=O)N2CCOCC2)C(c2ccc(C)cc2)NC(=S)N1 (stereo not drawn)	-8.86
CCC1CCCCN1C(=O)CN1C(=O)CSC1=O (stereo not drawn)	16.4
COc1ccc(C2C(C(=O)N3CCN(c4ccccn4)CC3)CC(=O)N2c2ccc(OC)cc2)cc1 (stereo not drawn)	-78.7
CCc1c(C)nc2ncnn2c1N1CCC(C(=O)N2CCN(c3ccc(F)cc3)CC2)CC1	-67.9
O=C(Nc1ccccc1F)N1CCC(NC(=O)C23CC4CC(CC(C4)C2)C3)CC1	9.42
Cl.NCC(=O)NCC(=O)OCc1ccccc1 (H-Gly-Gly-OBn)	19.6
CC(=O)NS(=O)(=O)c1ccc(NC(=O)COc2cccc3c2OC(C)(C)C3)cc1	2.03
O=C1C(C2=NC(c3ccccn3)C3C(=O)N(c4ccc(OC(F)(F)F)cc4)C(=O)C23)=C(O)c2ccccc21 (stereo not drawn)	12.2
Cc1ccc(S(=O)(=O)c2n[nH]n3c2nc(=O)c2ccccc23)cc1	-9.72
CC(=O)Nc1ccc(C(=O)n2cnc3cc(C)c(C)cc32)cc1	-3.23
CC(C)C[C@H]1CN=C(Nc2ccccc2)N1CCC1CCCC1	-51.5
Cc1ccc(CNC(=O)C2c3ccccc3C(=O)N(C)C2c2c[nH]c3ccccc23)o1 (stereo not drawn)	-7.83
CCCCN(C1CCS(=O)(=O)C1)S(=O)(=O)c1ccc(OC)cc1 (stereo not drawn)	-24.5
CC1(C)Cc2c(c(-c3ccccc3)nc3[nH][nH]c(=O)c23)CO1	0.812
CCc1nc(-n2[nH]c(=O)c3ccccc3c2=O)c2c3c(sc2n1)CCCC3	11.5
CCN(CC)S(=O)(=O)c1ccc(N2CCOCC2)c(NC(=O)CN2C(=O)NC(C)(c3ccccc3)C2=O)c1 (stereo not drawn)	-24.1
O=C(COC(=O)C1CC(=O)N(c2ccc3c(c2)OCCO3)C1)Nc1ccc2c(c1)CCC2 (stereo not drawn)	1.34
CC(C)CCNC(=O)NC(=O)COC(=O)C1=COCCO1	9.33
